Measurements: the supplement of paper PMC3334620
The full ranking holds about 33,000 sequences; the median of “E-score (-0.5 to 0.5)” is about -0.041, and the highest 2% start at about 0.37. The list shows a part of the results.

Target: T1, Ecm22 (UniProt Q05958)
T1 sequence: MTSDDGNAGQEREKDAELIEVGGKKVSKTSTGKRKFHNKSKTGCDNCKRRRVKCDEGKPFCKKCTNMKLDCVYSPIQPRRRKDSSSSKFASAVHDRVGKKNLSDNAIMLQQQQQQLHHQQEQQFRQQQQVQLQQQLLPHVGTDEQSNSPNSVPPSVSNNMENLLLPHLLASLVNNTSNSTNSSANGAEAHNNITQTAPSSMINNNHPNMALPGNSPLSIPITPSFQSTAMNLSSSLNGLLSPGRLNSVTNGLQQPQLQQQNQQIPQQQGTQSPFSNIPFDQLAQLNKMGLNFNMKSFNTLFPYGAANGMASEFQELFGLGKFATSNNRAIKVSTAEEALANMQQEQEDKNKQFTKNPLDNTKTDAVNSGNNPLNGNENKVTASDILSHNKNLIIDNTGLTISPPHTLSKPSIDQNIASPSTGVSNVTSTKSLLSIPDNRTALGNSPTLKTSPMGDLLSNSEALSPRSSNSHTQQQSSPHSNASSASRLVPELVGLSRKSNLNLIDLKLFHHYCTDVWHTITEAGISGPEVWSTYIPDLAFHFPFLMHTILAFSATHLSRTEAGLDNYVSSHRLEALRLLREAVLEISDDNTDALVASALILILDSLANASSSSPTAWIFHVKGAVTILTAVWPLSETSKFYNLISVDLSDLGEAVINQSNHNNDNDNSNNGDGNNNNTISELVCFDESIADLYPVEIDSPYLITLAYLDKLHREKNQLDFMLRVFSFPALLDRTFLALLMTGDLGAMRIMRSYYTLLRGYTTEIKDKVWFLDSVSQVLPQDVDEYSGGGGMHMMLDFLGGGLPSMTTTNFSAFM
Assay: PBM E-score (8-mer binding enrichment) (E-score (-0.5 to 0.5)); higher = stronger / more preferred TF binding; most listed sequences are background and not binding sites
Conditions: protein concentration: 200 nM; construct: GST-full length
In short: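 The E-score, a modified Wilcoxon-Mann-Whitney statistic, was computed by the Universal PBM Analysis Suite for every ungapped eight-base word pooled with its reverse complement. Scans behind it were normalised with masliner after bound GST-tagged yeast transcription factors were detected with fluorescent anti-GST. The proteins, at about 100-200 nM, had been applied to universal all-10-mer Agilent arrays made double-stranded by primer extension.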

Sequence	PBM E-score
ACCTGTTC	0.0849
ACACCATC	-0.296
AGCACAAT	-0.0457
GTAATAAA	0.191
CCGGCAAA	-0.0597
GTCAGTTA	-0.198
ACCGACGT	0.329
GCACGTTA	0.0282
ATCTACTG	0.00504
GGCACGAC	0.032
AAGATTGG	-0.0014
AAATTCTG	-0.0343
CAACTTCC	0.0673
ACCTAGTG	-0.194
CACAGCTC	-0.158
AGAGACTA	-0.0518
AGTTTGCA	-0.0381
GCGCCATA	-0.118
AAATGCAG	-0.117
TCTTGCCA	-0.185
TCAGGGAA	0.0165
CGTCGTAA	0.446
AATGGGTC	-0.146
CACAGATC	-0.136
CCGATCCC	-0.0441

Sequence	PBM E-score
AATCAGGA	-0.124
AGCTGCCC	-0.0461
AGCGTAGA	-0.0994
ATAAGTGA	-0.0231
GCCAATAC	0.0426
ATCACATG	-0.0392
ACAACGGA	0.00212
GACCCGCC	0.0114
CTGATCCC	-0.0594
CTACATAG	-0.114
CCCCTCGG	0.266
AGATGGCT	-0.169
AAGCTCAC	-0.0834
ACCACGAC	0.00538
ATTCATTG	-0.00988
GCTTGCGA	0.161
CAAAATGG	-0.128
CCCGAACG	0.274
AGCGCTTC	-0.0209
ACCCGGGT	-0.0402
CACTTGGG	-0.376
TAACGGAA	0.102
ACATGGTG	-0.0868
AAGAGCAT	-0.0744
ACGGGACC	0.0546

Sequence	PBM E-score
CTCGAGGA	-0.123
ATGGCAAG	-0.146
AGTATCAG	-0.0962
AAATGTTC	0.0504
AACCCATG	-0.23
ATTCCGCA	-0.0441
CTTTGAGA	-0.0843
CCCCCTTC	-0.269
CGTTACGC	0.256
TGCCACAA	-0.147
CAACATTC	-0.101
CTAAAAGC	-0.00248
CGTTCAAC	0.377
CTTGCTGC	-0.14
GATGCAAC	-0.127
CTAGATCA	-0.0351
ACCGTGAG	-0.184
TTAAGGAA	-0.016
ACACGAAG	0.249
AGGAAAGG	-0.33
TCGCCTAA	0.0931
CCTAACAG	-0.0916
ACGTTATG	0.163
GCTTATTA	0.0326
CATGGCTA	-0.0322

Sequence	PBM E-score
AACTCGAA	-0.0361
AGCTCATC	-0.0135
GACGGGCA	-0.058
CGCAGTAC	0.174
GATTCCGA	-0.0306
AAACTAGT	-0.00576
CGCTCTTC	0.202
AAAGATTA	0.0079
ATGAGCGC	0.0506
GGACAGAA	-0.00623
CATCCCGC	-0.131
ACTCGCCG	0.144
GTACACCA	0.0324
CAGACTCA	-0.175
ATACGAGG	0.488
AGCCGCGA	0.0625
GGACGATA	-0.213
CGTCGCGC	0.0932
ACCCAGCA	-0.0699
ATCATCTA	-0.0624
ATCCTAAT	0.0012
CCTTGTTC	0.0241
CACCCAGA	-0.29
ATAGTGAC	0.0492
CATTGGCG	-0.239

Sequence	PBM E-score
GCAGCGAA	0.229
ATTCTAGG	0.0128
CTACAGAC	-0.0549
AGGAACAG	-0.257
GATGTGCA	-0.0786
ATCAAATA	0.0985
ATGTTTTC	0.136
ATGACGTA	0.105
ATGGTTGC	-0.0601
CAAGAACG	0.337
AGCTCACG	-0.104
ACAAAGCA	-0.0601
ACTTAACA	-0.121
CGCTACAC	0.00181
ATACCTGC	0.0396
AGCTAATG	-0.0961
CCATTCAA	0.0326
ATCGTAAT	0.263
CGAGACAA	0.133
AATGTGTA	-0.0375
CACTATAC	0.2
GGAGACAC	-0.226
AGGGACGG	-0.256
CGCCGCGC	-0.0266
CAGAAGCC	-0.0648

Sequence	PBM E-score
TATCGCAA	-0.0102
GAGTGAAC	0.117
ATGCATCA	-0.00851
AAACGCCC	0.121
CACAACTC	0.144
CAAACAAG	-0.135
GCATCTCA	0.00225
ATACAAGG	-0.14
CTTTATCA	-0.178
GCAGCGCA	-0.0703
ACCGGCAA	-0.0122
AACAGCCG	-0.0151
CAGATGAA	-0.11
GACGACAC	-0.0609
ACAGCATA	0.0976
AGTTTACC	-0.0268
CCTAGGCC	-0.419
AGATTCAG	-0.0218
CAAAGGGG	-0.198
CGGAGTGA	0.0314
AGCCAGCG	-0.0343
ACTCTCCT	-0.191
CAAAGATC	0.0168
AATGTCAG	-0.178
ACTCTCTA	-0.197

Sequence	PBM E-score
GCCGACGC	-0.0829
TCCAGAAA	-0.153
CAGTTACG	0.0991
CTAAGTGA	0.0102
ATGCTATC	0.0455
ACTGTGAA	0.1
ACTCGATC	0.0469
GGTGAGAA	-0.212
CACTTGCA	-0.0874
CAAGGCGA	-0.111
AGGAAACG	0.281
CCCGTAAC	0.189
TGAGGCAA	0.0208
ACTCTATG	-0.0729
ACGGTCAG	-0.0484
CTCCGGAG	0.0177
ACATTGAG	-0.128
GACTTAGA	0.0336
CAACAAAA	0.0263
TCCGCGGA	0.00602
TTACATAA	0.0922
CACCCTTC	-0.0922
